The supplement of paper PMC12217912
The other results are listed elsewhere or left out. Sequences were assembled here from the parent chain. Inactive controls read about 0.05.

B1: TEV protease; numbered along this chain (parent)
chain: MGESLFKGPRDYNPISSSICHLTNESDGHTTSLYGIGFGPFIITNKHLFRRNNGTLVVQSLHGVFKVKDTTTLQQHLVDGRDMIIIRMPKDFPPFPQKLKFREPQREERICLVTTNFQTKSMSSMVSDTSCTFPSGDGIFWKHWIQTKDGQCGSPLVSTRDGFIVGIHSASNFTNTNNYFTSVPKNFMELLTNQEAQQWVSGWRLNADSVLWGGHKVFMVKPEEPFQPVKEATQL
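Further: Bxb1 expression induced with 0.2% (w/v) L-rhamnose at OD600 near 0.5, cultures sampled hourly, flipped fraction per protease–substrate barcode pair counted by paired-end Illumina sequencing.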

Variants of: B1
Experiment: raw area under fraction-flipped curve 0-4 h after induction (AUC4h, not background-subtracted), DNA-recorder readout of cleavage of the substrate (dimensionless); higher = more cleavage of the substrate by the protease variant
Details: temperature: 34 °C; time window: 0-4 h after rhamnose induction
With MGESLFKGPRDYNPISSSICHLTNESDGHTTSLYGIGFGPFIITNKHLFRRNNGTLVVQSLHGVFKVKDTTTLQQHLVDGRDMIIIRMPKDFPPFPQKLKFREPQREERICLVTTNFQTKSMSSMVSDTSCTFPSGDGIFWKHWIYTKDGQCGSPLVSTRDGFIVGIHSASNFTNTNNYFTSVPKNFMELLTNQEAQQWVSGWRLNADSVLWGGHKVFMVKPEEPFQPVKEATQL [Q146Y] the “area with substrate ENLYFQH” value was 0.146, the “area with substrate ENLYFQI” value was 0.0557 and the “area with substrate ENLYFQM” value was 0.0993. The “area with substrate ENLYFQN” value was 0.0814, the “area with substrate ENLYFQP” value was 0.0648 and the “area with substrate ENLYFQR” value was 0.0537. The “area with substrate ENLYFQS” value was 0.116, the “area with substrate ENLYFQV” value was 0.0557 and the “area with substrate ENLYFQW” value was 0.0681.
In the case of MGESLFKGPRDYNPISSSICHLTNESDGHTTSLYGIGFGPFIITNKHLFRRNNGTLVVQSLHGVFKVKDTTTLQQHLVDGRDMIIIRMPKDFPPFPQKLKFREPQREERICLVTTNFQTKSMSSMVSDTSCTFPSGDGIFWKHWIQTKDGQCGSPLVSTRDGFIVGIHSASNFTNTNNYFTSVPKNFMELLTNQEAQQWVSGWRLNADSVLHGGHKVFMVKPEEPFQPVKEATQL [W212H], the “area with substrate ENLYFQH” value is reported as 0.0686, the “area with substrate ENLYFQI” value is reported as 0.0604 and the “area with substrate ENLYFQN” value is reported as 0.0615. For the same variant, the “area with substrate ENLYFQS” value was 0.0845 and the “area with substrate ENLYFQW” value was 0.0503.
In the case of MGESLFKGPRDYNPISSSICHLTNESDGHTTSLYGIGFGPFIITNKHLFRRNNGTLVVQSLHGVFKVKATTTLQQHLVDGRDMIIIRMPKDFPPFPQKLKFREPQREERICLVTTNFQTKSMSSMVSDTSCTFPSGDGIFWKHWIQTKDGQCGSPLVSTRDGFIVGIHSASNFTNTNNYFTSVPKNFMELLTNQEAQQWVSGWRLNADSVLWGGHKVFMVKPEEPFQPVKEATQL [D69A], the “area with substrate ENLYFQI” value is reported as 0.0788, the “area with substrate ENLYFQS” value is reported as 0.0876 and the “area with substrate ENLYFQT” value is reported as 0.067. For the same variant, the “area with substrate ENLYFQY” value was 0.0828.
For MGESLFKGPRDYNPISSSICHLTNESDGHTTSLYGIGFGPFIITNKHLFRRNNGTLVVQSLHGVFKVKDTTTLQQHLVDGRDMIIIRMPKDFPPFPQKLKFREPQREERICLVTTNFQTKSMSSMVSDTSCTFPSGDGIFWKHWIQTKDGQCGSPLVSTRDGFIVGIHSASNFTNTNNYFTSVPKNFMELLTNQEAQQWVSGWRLNADSVLWGGHKVFMVKPEEPFHPVKEATQL [Q227H], the “area with substrate ENLYFQI” value was 0.0645, the “area with substrate ENLYFQM” value was 0.0933 and the “area with substrate ENLYFQN” value was 0.08. The “area with substrate ENLYFQR” value was 0.0664, the “area with substrate ENLYFQS” value was 0.103 and the “area with substrate ENLYFQT” value was 0.0481. The “area with substrate ENLYFQW” value was 0.0678.
For MGESLFKGPRDYNPISSSICHLTNESDGHTTSLYGIGFGPFIITNKHLFRRNNPTLVVQSLHGVFKVKDTTTLQQHLVDGRDMIIIRMPKDFPPFPQKLKFREPQREERICLVTTNFQTKSMSSMVSDTSCTFPSGDGIFWKHWIQTKDGQCGSPLVSTRDGFIVGIHSASNFTNTNNYFTSVPKNFMELLTNQEAQQWVSGWRLNADSVLWGGHKVFMVKPEEPFQPVKEATQL [G54P], the “area with substrate ENLYFQH” value was 0.0671, the “area with substrate ENLYFQL” value was 0.0629 and the “area with substrate ENLYFQN” value was 0.0602. For the same variant, the “area with substrate ENLYFQS” value was 0.0676.
For MGESIFKGPRDYNPISSSICHLTNESDGHTTSLYGIGFGPFIITNKHLFRRNNGTLVVQSLHGVFKVKDTTTLQQHLVDGRDMIIIRMPKDFPPFPQKLKFREPQREERICLVTTNFQTKSMSSMVSDTSCTFPSGDGIFWKHWIQTKDGQCGSPLVSTRDGFIVGIHSASNFTNTNNYFTSVPKNFMELLTNQEAQQWVSGWRLNADSVLWGGHKVFMVKPEEPFQPVKEATQL [L5I], the “area with substrate ENLYFQI” value was 0.0439, the “area with substrate ENLYFQK” value was 0.0566 and the “area with substrate ENLYFQM” value was 0.104. For the same variant, the “area with substrate ENLYFQN” value was 0.0796, the “area with substrate ENLYFQR” value was 0.0502 and the “area with substrate ENLYFQS” value was 0.126. The “area with substrate ENLYFQT” value was 0.0686 and the “area with substrate ENLYFQW” value was 0.0617.
With MGESLFKGPRDYNPISSSICHLTNESDGHTTSLYGIGFGPFIITNKHLFRRNNGTLVVQSLHGVFKVKDTTTLQQHLVDGRDMIIIRMPEDFPPFPQKLKFREPQREERICLVTTNFQTKSMSSMVSDTSCTFPSGDGIFWKHWIQTKDGQCGSPLVSTRDGFIVGIHSASNFTNTNNYFTSVPKNFMELLTNQEAQQWVSGWRLNADSVLWGGHKVFMVKPEEPFQPVKEATQL [K90E] the “area with substrate ENLYFQH” value was 0.0989, the “area with substrate ENLYFQI” value was 0.0603 and the “area with substrate ENLYFQK” value was 0.0577. For the same variant, the “area with substrate ENLYFQP” value was 0.0538, the “area with substrate ENLYFQR” value was 0.0632 and the “area with substrate ENLYFQS” value was 0.106. For the same variant, the “area with substrate ENLYFQW” value was 0.0631.
With MGESLFKGPRDYNPISSSICHLTNESDGHTTSLYGIGFGPFIITNKHLFRRNNGTLVVQSLHGVFKVKDTTTLQQHLVDGRDMIIIRMPKDFPPFPQKLKFREPQREERICLVTTNFQTKSMSSMVSDTSCTFPSGDGIFWKHWIQTKDGQCGSPLVSTRDGFIVGIHSASNFTNTNNYFTSVPKNFMELLTNQEAQQWVSGWRLNADSVLWGGHKVFMVKPEEPFQPVKEATQR [L235R] the “area with substrate ENLYFQG” value was 0.116, the “area with substrate ENLYFQI” value was 0.0638 and the “area with substrate ENLYFQN” value was 0.126. The “area with substrate ENLYFQS” value was 0.116.
For MGESLFKGPRDYNPISSSICHLTNESDGHTTSLYGIGFGPFIITNKHLFRRNNGTLVVQSLHGVFKVKDTTTLQQHLVDGRDMIIIRMPKDFPPFPQKLKFREPQREERICLVTTNFQTKSMSSMVSDTSCTFPSGDGIFWKHWIQTKDGQCGSPLVSTRDGFIVGIHSDSNFTNTNNYFTSVPKNFMELLTNQEAQQWVSGWRLNADSVLWGGHKVFMVKPEEPFQPVKEATQL [A170D], the “area with substrate ENLYFQK” value was 0.0648, the “area with substrate ENLYFQM” value was 0.0626 and the “area with substrate ENLYFQQ” value was 0.0642. The “area with substrate ENLYFQR” value was 0.0556 and the “area with substrate ENLYFQS” value was 0.0577.
With MGESLFKGPRDYNPISSSICHLTNESDGHTTSLYGIGFGPFIITNKHLFRRNNGTLVVQSLHGVFKVKDTTTLQQHLVDGRDMIIIRMPKDFPPFPQKLKFREPQREERWCLVTTNFQTKSMSSMVSDTSCTFPSGDGIFWKHWIQTKDGQCGSPLVSTRDGFIVGIHSASNFTNTNNYFTSVPKNFMELLTNQEAQQWVSGWRLNADSVLWGGHKVFMVKPEEPFQPVKEATQL [I110W] the “area with substrate ENLYFQK” value was 0.052, the “area with substrate ENLYFQL” value was 0.0471 and the “area with substrate ENLYFQM” value was 0.0573. For the same variant, the “area with substrate ENLYFQS” value was 0.0552, the “area with substrate ENLYFQV” value was 0.0609 and the “area with substrate ENLYFQY” value was 0.0376.
With MGESLFKGPRDYNPISSSICHLTNESDGHTTSLYGIGFGPFIITNKHLFRRNNGTLVVQSLHGVFKVKDTTTLQQHLVDGRDMIIIEMPKDFPPFPQKLKFREPQREERICLVTTNFQTKSMSSMVSDTSCTFPSGDGIFWKHWIQTKDGQCGSPLVSTRDGFIVGIHSASNFTNTNNYFTSVPKNFMELLTNQEAQQWVSGWRLNADSVLWGGHKVFMVKPEEPFQPVKEATQL [R87E] the “area with substrate ENLYFQI” value was 0.0408, the “area with substrate ENLYFQL” value was 0.0737 and the “area with substrate ENLYFQN” value was 0.0852. For the same variant, the “area with substrate ENLYFQR” value was 0.0563, the “area with substrate ENLYFQS” value was 0.105 and the “area with substrate ENLYFQT” value was 0.07.
